Source: the RNAGym collection of RNA variant scans (doi:10.1073/pnas.2313332121)
Variants at the background level are over-represented here.

B1: TPR 5TU (parent)
chain: GGAUCUUCUCGAUCUAACAAAAAAGACAAAUCUGCCACAAAGCUUGAGAGCAUCUUCGGAUGCAGAGGCGGCAGCCUUCGGUGGCGCGAUAGCGCCAACGUUCUCAACUAUGACACGCAAAACGCGUGCUCCGUUGAAUGGAGUUUAUCAUG

Variants of: B1
Assay: polymerase ribozyme fitness, log enrichment relative to wild type (log ratio); higher = more active; in vitro selection for triplet polymerase activity
In short: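 Both subunits of a heterodimeric triplet polymerase ribozyme were given their own mutant library, built by PCR and transcribed. Each library was annealed with a biotinylated primer, the partner subunit and triplets, incubated frozen at −7 °C, and its extended constructs gel-excised, captured on streptavidin beads and amplified by RT-PCR, all in one round done in triplicate. Fitness is the logarithm of genotype enrichment relative to wild-type enrichment, with replicates averaged by inverse-variance weighting. That logarithm is base 2, and Illumina-sequenced genotypes needed ≥10 input reads and ≥1 read per output.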
In the case of A12G C14U U33A G84A G88A, the “polymerase ribozyme fitness (log ratio)” value is reported as ≤ -4.2.
With U13A C27U A113G C116G A119U G124C the “polymerase ribozyme fitness (log ratio)” value was ≤ -4.2.
With A12G U55A U61G C72U C93U the “polymerase ribozyme fitness (log ratio)” value was ≤ -4.2.
In the case of A12G U78C U139G, the “polymerase ribozyme fitness (log ratio)” value is reported as -1.31.
For U13A G42A A49U U61A G88U A91G G100U G141C, the “polymerase ribozyme fitness (log ratio)” value was ≤ -4.2.
For A12G A16G U44G G81C G84A C95U U144A U146C, the “polymerase ribozyme fitness (log ratio)” value was ≤ -4.2.
For G11U A91G, the “polymerase ribozyme fitness (log ratio)” value was -3.82.
In the case of A12G C14G C18U U31A U56G U101A, the “polymerase ribozyme fitness (log ratio)” value is reported as -2.32.
In the case of U13G C35U C54A U56C C93A U102G, the “polymerase ribozyme fitness (log ratio)” value is reported as ≤ -4.2.
With G11U A40C G70C C103G the “polymerase ribozyme fitness (log ratio)” value was ≤ -4.2.
With A12C A98U G128U G140C the “polymerase ribozyme fitness (log ratio)” value was ≤ -4.2.
With U13C C14G C43G A91G A106U U109G A138G the “polymerase ribozyme fitness (log ratio)” value was -4.06.
In the case of A12G C32A C38U C99A, the “polymerase ribozyme fitness (log ratio)” value is reported as ≤ -4.2.
With A12G C105A G124U U148G C149U the “polymerase ribozyme fitness (log ratio)” value was ≤ -4.2.
For A12U G34A A49C U56A C93A C95G G140C U146C, the “polymerase ribozyme fitness (log ratio)” value was ≤ -4.2.
For A12U C18U A26C C54U C76G G84C A115G A142C U145C, the “polymerase ribozyme fitness (log ratio)” value was ≤ -4.2.
For U13A G58A C87U C105A C108U G124A U145A, the “polymerase ribozyme fitness (log ratio)” value was ≤ -4.2.
With U13G A29C U77G G83U A91C A121G the “polymerase ribozyme fitness (log ratio)” value was ≤ -4.2.
With A12U G92U the “polymerase ribozyme fitness (log ratio)” value was -1.64.
With A12G C87U G88A C105G A115G the “polymerase ribozyme fitness (log ratio)” value was ≤ -4.2.
With U13G C72U C75G C131G U139G the “polymerase ribozyme fitness (log ratio)” value was ≤ -4.2.
In the case of U13G C79A C118U, the “polymerase ribozyme fitness (log ratio)” value is reported as ≤ -4.2.
With A12U G88U G92C U130A U145C the “polymerase ribozyme fitness (log ratio)” value was ≤ -4.2.
With A12C C85U C116A A122G G143U the “polymerase ribozyme fitness (log ratio)” value was ≤ -4.2.
In the case of A12C A29U G68C A73C G80U G84C, the “polymerase ribozyme fitness (log ratio)” value is reported as ≤ -4.2.
With A12C C85G A122C the “polymerase ribozyme fitness (log ratio)” value was -2.14.
For U13G G50U A52C U55A C87U A107G A137C, the “polymerase ribozyme fitness (log ratio)” value was ≤ -4.2.
With A12U C38U C93U U102G U145C the “polymerase ribozyme fitness (log ratio)” value was ≤ -4.2.
For A12U A40G C54A U61A G83A A91G C103A, the “polymerase ribozyme fitness (log ratio)” value was ≤ -4.2.
For A12C C35U G86A C93U, the “polymerase ribozyme fitness (log ratio)” value was -1.43.
In the case of A12G A24U U53A U82G G84A A89U, the “polymerase ribozyme fitness (log ratio)” value is reported as -3.13.
For A12C A52C G83A A91U, the “polymerase ribozyme fitness (log ratio)” value was ≤ -4.2.
In the case of A12G C79U G86C A120G C125U, the “polymerase ribozyme fitness (log ratio)” value is reported as ≤ -4.2.
In the case of A12U C76G C85U C103A G126C U145G, the “polymerase ribozyme fitness (log ratio)” value is reported as ≤ -4.2.
For A12G A26G C57A C96A G117A U148A, the “polymerase ribozyme fitness (log ratio)” value was ≤ -4.2.
With A12U A21C G70C G84U C132A G136A A142U the “polymerase ribozyme fitness (log ratio)” value was ≤ -4.2.
With A12G U31C C43A the “polymerase ribozyme fitness (log ratio)” value was ≤ -4.2.
With A12G G83A C116A G141C the “polymerase ribozyme fitness (log ratio)” value was ≤ -4.2.
For U13G G46C C54U G92U, the “polymerase ribozyme fitness (log ratio)” value was -3.24.
In the case of U13G A40U A60C C99G G100C, the “polymerase ribozyme fitness (log ratio)” value is reported as ≤ -4.2.
With A12G A17G A20G A39U G50C A66C C87U U90C the “polymerase ribozyme fitness (log ratio)” value was ≤ -4.2.
For A12C A21C A52C C87A C118G G136A, the “polymerase ribozyme fitness (log ratio)” value was ≤ -4.2.
With U13C U33A A91G G94U U151G the “polymerase ribozyme fitness (log ratio)” value was ≤ -4.2.
For A12U A110G, the “polymerase ribozyme fitness (log ratio)” value was -3.35.
For A12G C18G A30C C99A G133C, the “polymerase ribozyme fitness (log ratio)” value was ≤ -4.2.
For A12G C14G A97U, the “polymerase ribozyme fitness (log ratio)” value was -2.49.
For A12U A23G C87U, the “polymerase ribozyme fitness (log ratio)” value was -3.67.
With U13G A122C A142C the “polymerase ribozyme fitness (log ratio)” value was -2.05.
In the case of U13C A37G G126C, the “polymerase ribozyme fitness (log ratio)” value is reported as -1.85.
For A12U C87G, the “polymerase ribozyme fitness (log ratio)” value was -4.2.
For U13C C85G C87U G94C A110G C125U U135A, the “polymerase ribozyme fitness (log ratio)” value was ≤ -4.2.
With A12C C38U G50C C96G G117U the “polymerase ribozyme fitness (log ratio)” value was ≤ -4.2.
With A12C A24C A37C G46C U55A C57G A98G C116U A120G the “polymerase ribozyme fitness (log ratio)” value was ≤ -4.2.
For U13G C76A C132U A150U, the “polymerase ribozyme fitness (log ratio)” value was ≤ -4.2.
In the case of U13A A28U C36U G81C, the “polymerase ribozyme fitness (log ratio)” value is reported as ≤ -4.2.
For U13C G48A C69U G81U C96G C116U A122U G141A, the “polymerase ribozyme fitness (log ratio)” value was ≤ -4.2.
For U13C A26U C51U A91U C93U C114A A138G, the “polymerase ribozyme fitness (log ratio)” value was ≤ -4.2.
With U13A A41C C51G U56A C57A U130A the “polymerase ribozyme fitness (log ratio)” value was ≤ -4.2.
For A12U G58U G83A C93A, the “polymerase ribozyme fitness (log ratio)” value was ≤ -4.2.
For A12U C36A C87U G143U, the “polymerase ribozyme fitness (log ratio)” value was ≤ -4.2.
For A12G C76G G80A A89C C95A, the “polymerase ribozyme fitness (log ratio)” value was ≤ -4.2.
For U13A A20U C51A G86C, the “polymerase ribozyme fitness (log ratio)” value was ≤ -4.2.
With A12C G42C U44G U45G G68A C76A C105U A107G the “polymerase ribozyme fitness (log ratio)” value was ≤ -4.2.
For U13A C38A U61A C69G A73C A91C C95G U144C, the “polymerase ribozyme fitness (log ratio)” value was ≤ -4.2.
For A12G G58A A91U U109G, the “polymerase ribozyme fitness (log ratio)” value was -3.78.
For A12G A19C A39G C54A C95U C105G A110U, the “polymerase ribozyme fitness (log ratio)” value was ≤ -4.2.
In the case of A12U A16C A28G C38U A41U G86A A150G, the “polymerase ribozyme fitness (log ratio)” value is reported as ≤ -4.2.
In the case of U13G A29U C93U C129G, the “polymerase ribozyme fitness (log ratio)” value is reported as ≤ -4.2.
In the case of U13A A30G A37C G68U, the “polymerase ribozyme fitness (log ratio)” value is reported as ≤ -4.2.
In the case of A12U A20C G86U G100U U151A, the “polymerase ribozyme fitness (log ratio)” value is reported as ≤ -4.2.
With U13G A17C A21C G62A C75U A97U A107G A119U the “polymerase ribozyme fitness (log ratio)” value was ≤ -4.2.
In the case of U13C A20U A52G G80C A91G A121U, the “polymerase ribozyme fitness (log ratio)” value is reported as ≤ -4.2.
In the case of A12C A41C C54U G94U A121G G140C, the “polymerase ribozyme fitness (log ratio)” value is reported as ≤ -4.2.
For U13C A40U A64C U90G G100C A120U, the “polymerase ribozyme fitness (log ratio)” value was ≤ -4.2.
In the case of G11U C87G, the “polymerase ribozyme fitness (log ratio)” value is reported as -4.09.
For A12G A23U C85G A150G, the “polymerase ribozyme fitness (log ratio)” value was ≤ -4.2.
In the case of G11U A39C U55A G62A G74C C85U U130A G140C U148G, the “polymerase ribozyme fitness (log ratio)” value is reported as ≤ -4.2.
For U13G C18G U45A G59U U104G U134C G140U U144A, the “polymerase ribozyme fitness (log ratio)” value was ≤ -4.2.
In the case of U13A C14G A17U U31A C35A A41C U104G, the “polymerase ribozyme fitness (log ratio)” value is reported as ≤ -4.2.
In the case of A12U A28G G88C A89U C95A G152U, the “polymerase ribozyme fitness (log ratio)” value is reported as ≤ -4.2.
For U13G A23C G34C A64C U82A U139A, the “polymerase ribozyme fitness (log ratio)” value was ≤ -4.2.
With A12C A29U G68C A73C G80U G84C A121G the “polymerase ribozyme fitness (log ratio)” value was ≤ -4.2.
With U13A A52U A73G C85A U134G the “polymerase ribozyme fitness (log ratio)” value was ≤ -4.2.
